These results are taken from PMC11047111 (Proceedings of the National Academy of Sciences of the …, 2024).

This test deals with T1, KCTD5 (human, UniProt Q9NXV2 1-234).
T1 sequence: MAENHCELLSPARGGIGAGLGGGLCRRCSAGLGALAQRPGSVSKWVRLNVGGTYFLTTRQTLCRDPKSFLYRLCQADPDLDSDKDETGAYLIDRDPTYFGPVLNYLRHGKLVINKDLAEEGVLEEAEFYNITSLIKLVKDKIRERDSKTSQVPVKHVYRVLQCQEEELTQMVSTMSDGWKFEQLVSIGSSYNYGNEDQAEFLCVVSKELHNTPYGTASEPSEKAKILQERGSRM
In words: SEC. (In general: SEC sorts molecules by how far they enter the pores of the column.)

B1: CUL3^NTD (N-terminal domain of cullin 3, […]) (domain or fragment)
chain: not shown
On to B1, for which the stoichiometry N (commonly the number of molecules, sites or subunits per partner or assembly) was 1 CUL3^NTD per KCTD5 (molar ratio).
